Measurements from the supplement of paper PMC4466236.
Over roughly 33,000 sequences, “E-score (dimensionless, -0.5 to 0.5)” has its median near -0.058; the highest 2% begin near 0.35. The list shows a part of the results.

What follows are sequences tested on MvaT (assay: PBM 8-mer E-score (mean of HK and ME arrays) (E-score (dimensionless, -0.5 to 0.5)); higher = stronger relative binding preference; most listed sequences are background and not binding sites).
Procedure, shortened: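 Full-length P. aeruginosa MvaT, with glutathione S-transferase fused to its N-terminus (cloned into pTH6838 by isothermal assembly), was tested by protein binding microarray using a previously described protocol. Two universal double-stranded 60-mer arrays (ME and HK) were used, each with a constant 25-mer primer region and a variable 35-mer region covering all 8-mers. The rank-based 8-mer E-score (-0.5 to 0.5) is the mean of the two arrays, parsed with a custom Python script.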

| Sequence | PBM 8-mer E-score |
| --- | --- |
| CTCATAAG | -0.122 |
| AGAGGTAC | -0.211 |
| ACAAGACC | -0.123 |
| AAGTAGAA | 0.147 |
| ACCAGGAG | -0.239 |
| CGAAATAG | 0.122 |
| CTCGAAGC | -0.235 |
| ATATAGTA | 0.399 |
| GCCGCGAA | -0.168 |
| CTAATAGA | 0.184 |
| GACGAAGC | -0.298 |
| GGAACGAC | -0.175 |
| CATCCCCC | -0.266 |
| CGTCCGAC | -0.213 |
| CATATTGA | 0.264 |
| AGCCCGGA | -0.201 |
| CGGTGCTA | -0.21 |
| CATCTAAC | 0.163 |
| CAAACGCA | -0.107 |
| CATTGGAG | -0.146 |
| AATGACTC | 0.0269 |
| GTAACTAA | 0.303 |

| Sequence | PBM 8-mer E-score |
| --- | --- |
| CGGGTGCA | -0.19 |
| CAGTGGGC | -0.254 |
| CAATGGCC | -0.244 |
| GACATCAC | -0.218 |
| CCCCTGCA | -0.3 |
| CTCTGTCC | -0.159 |
| CATCACGA | -0.161 |
| ATACATTC | 0.304 |
| CTAGGCAA | -0.111 |
| GACTTGCC | -0.133 |
| AATGACAG | 0.0142 |
| ACAAGAGA | 0.105 |
| ACTTCCTA | -0.0421 |
| CGTTAGAA | 0.0275 |
| GCAGCACC | -0.0878 |
| ACACTAAA | 0.291 |
| AGCGCGTC | -0.087 |
| AATGTCGT | 0.00353 |
| GGCCGCAA | -0.302 |
| CGAACGTA | -0.0637 |
| CCATGTCC | -0.145 |
| CTGGGTCC | -0.306 |

| Sequence | PBM 8-mer E-score |
| --- | --- |
| AGAGACAC | 0.00422 |
| ACGTAAAT | 0.241 |
| GCGAACCC | -0.157 |
| AGAAAACT | 0.0299 |
| ACGGACCC | -0.151 |
| ACCGATCG | -0.178 |
| AGTCATAT | 0.179 |
| CGACAGGA | -0.217 |
| AAGCTTAG | -0.0258 |
| TCTGAGCA | -0.179 |
| ACCCTATC | -0.105 |
| GAGACGTA | -0.125 |
| ATTTGGAG | -0.0776 |
| ACATTAAA | 0.359 |
| CCTGTATA | 0.139 |
| CGTACTCC | -0.275 |
| CCTATTTC | 0.0116 |
| AGGGATTG | -0.0323 |
| GCGCGGTA | -0.012 |
| ACACTACC | 0.0946 |
| TACCTCCA | -0.0216 |
| AGTGCTAA | 0.0869 |

| Sequence | PBM 8-mer E-score |
| --- | --- |
| GTCAGCCA | -0.276 |
| AACCTTAA | 0.113 |
| GGGGCTAA | -0.105 |
| GGGTGCTA | -0.16 |
| ATATAGGC | 0.242 |
| ACCGAAAA | 0.114 |
| CAACAAGC | -0.0993 |
| ACAGCGAG | -0.176 |
| CCACGTGA | -0.119 |
| TGATTTAA | 0.347 |
| AAAGTCTC | 0.128 |
| GCAATTGC | 0.195 |
| AACGTGGG | -0.184 |
| GGATTGTA | 0.094 |
| ACGGCGCC | -0.169 |
| CCTCTCGA | -0.199 |
| ATGCTCTG | -0.131 |
| AGCATCCG | -0.292 |
| CAATGTTC | -0.0136 |
| GGGACTTA | 0.109 |
